Our source for the self-cleavage values is the RNAGym collection of RNA variant scans (doi:10.1093/nar/gkz1192).

B1: CPEB3 Ribozyme (parent)
chain: UAACAGGGGGCCACAGCAGAAGCGUUCACGUCGCAGCCCCUGUCAGAUUCUGGUGAAUCUGCGAAUUCUGCUGUAUAUCUC

Read counts are not given, so values of variants with three or more changes are uncertain.

The variants in the series derive from B1. Nature of the series: self-cleavage, relative activity (ratio to wild type); higher = more cleavage; in vitro, sequencing. A digest of the protocol:
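Barcoded CPEB3 ribozyme mutants, produced by rounds of error-prone PCR, self-cleaved while being transcribed with T7 RNA polymerase for 5 hours at 37°C and during a subsequent 15 min DNase I step before EDTA was added. Sequencing of template-switched cDNA on Illumina gave cleaved and total reads, and DNA sequencing assigned barcodes to variants. Each variant's relative activity is its cleaved/total read fraction divided by the unmutated ribozyme's fraction, averaged across three batches. A variant needed a minimum of 5 reads.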
UAACAGGGGGCCACAGCAGAAGCGUUCACGUCGCAGCCCCCGUGAGAUUCUGGUGAGUCUGCGAAUUCUGCUGUAUAUCUC: the self-cleavage stood at 0.27.

As for UAACAGGGGGCCACAGCAGAAGCGUUCACGUCGCAGCCCCCGUCAGAUUCUGGUGAAUUUGCGAAUUCUGCAGUAUAUCUC, the self-cleavage was 0.62. The figure for UAACAGGGGGCCACAGCAGAAGCGUUCACGUCGCAGCCCCCGUCAGAUUCUGGUGAAUCUGCGGAUUCUGCUGUGUAUCUC is 0.57; for UAACAGGGGGCCACAGCAGAAGCGUUCACGUCGCAGCCCCCAUCAGAUUCUGGUGAAUCUGCGUAUUCUGCUGUAUAUCUC it is 0.27; for UAACAGGGGGCCACAGCAGAAGCGUUCACGUCGCAGCCCCCGUUAGAUUCUGGUGAAUCUGCGAGUUCAGCUGUAUAUCUC it is 0.07.

For the variant UAACAGGGGGCCACAGCAGAAGCGUUCACGUCGCAGCCCCCGUCAGAUUCUGGUGAAUCUGCGUAUUCUGCUGCAUAUCUC, the self-cleavage was found to be 0.53. The figure for UAACAGGGGGCCACAGCAGAAGCGUUCACGUCGCAGCCCCCGUCAGAUUCUGGUGAGUCUGCGAAUUCUGCUGUAAAUCUC is 1.12; for UAACAGGGGGCCACAGCAGAAGCGUUCACGUCGCAGCCCCCGUCAGAUUCUGGUGAAUCUGCGUACUUCGCUGUAUGUCUC it is 0.22.

For UAACAGGGGGCCACAGCAGAAGCGUUCACGUCGCAGCCCCCGUCAGAUUCUGGUGAAUCUGCGAGUUCAGCUGCAUAUCUC, the self-cleavage was 0.35. As for UAACAGGGGGCCACAGCAGAAGCGUUCACGUCGCAGCCCCCGUCAGAUUCUGGUGAAUCUGCGAGUUCUGCUGUACAUCUC, the figure is 0.65. The figure for UAACAGGGGGCCACAGCAGAAGCGUUCACGUCGCAGCCCCCGUCAGAUUCUGGUGAAUCUGCGUAUUCUGCUGUGUAUCUC is 0.47; for UAACAGGGGGCCACAGCAGAAGCGUUCACGUCGCAGCCCCCGUCAGAUUCUGGUGAUUCUGCGAACUCUGCUGCAUAUCUC it is 0.48; for UAACAGGGGGCCACAGCAGAAGCGUUCACGUCGCAGCCCCCGUCACAUUCUGGUGAAUCUGCGAAUCCUGCCGUAUAUCUC it is 0.07. For the variant UAACAGGGGGCCACAGCAGAAGCGUUCACGUCGCAGCCCCCCUCAGAUUCUGGUGAAUCUGCGAAUUCCGCUGUAUGUCUC, the self-cleavage stood at 0.1. The figure for UAACAGGGGGCCACAGCAGAAGCGUUCACGUCGCAGCCCCCGUCAGAUUCUGGUGAAUCUGCGUACUCUGCUGUAUAUCUC is 0.46; for UAACAGGGGGCCACAGCAGAAGCGUUCACGUCGCAGCCCCCGUCAGAUUCUGGUGAAUCUGAGAAUUCCGCUAUAUAUCUC it is 0.18; for UAACAGGGGGCCACAGCAGAAGCGUUCACGUCGCAGCCCCCGUCAGAUUCUGGUGAAUCUGCGUAUUCUGCUGUAUGUCUC it is 0.29. UAACAGGGGGCCACAGCAGAAGCGUUCACGUCGCAGCCCCCGUCAGAUUCUGGUGAAUCUGCGAAUUCUGCUGUUUAUCAC: the self-cleavage was found to be 1.22.

With UAACAGGGGGCCACAGCAGAAGCGUUCACGUCGCAGCCCCCGUCAUGUUCUGGUGAAUCUGCGAAUUCUGCUGUAUAUCUC, the self-cleavage was found to be 0.41. The figure for UAACAGGGGGCCACAGCAGAAGCGUUCACGUCGCAGCCCCCGUCAAAGUCUGGUGAAUCUGCGAAUUCCGCCGUAUAUCUC is 0.18. Regarding UAACAGGGGGCCACAGCAGAAGCGUUCACGUCGCAGCCCCCGUCAGAUUCUGGUGAGUCUGCGAAUACUGCUGUAUAUCUC, the self-cleavage was found to be 0.51. The figure for UAACAGGGGGCCACAGCAGAAGCGUUCACGUCGCAGCCCCCGUCAGAUUCUGGUGAUUCUGCGAAUUCUGCUGUAUAUCCC is 0.76; for UAACAGGGGGCCACAGCAGAAGCGUUCACGUCGCAGCCCCCAUCAGAUUCUGGUGAAUCUGCGAAAUCUGCGGUAUACCUC it is 0.06; for UAACAGGGGGCCACAGCAGAAGCGUUCACGUCGCAGCCCCCGUCAGAUUCUGGUGAGUCUGCGAAUUCCGCUGUACAUCUC it is 0.66. For the variant UAACAGGGGGCCACAGCAGAAGCGUUCACGUCGCAGCCCCCGUCAAAUUCGGGUGAAUCUGCGAAUUCUGCCGUAUAUCUC, the self-cleavage came out at 0.23. UAACAGGGGGCCACAGCAGAAGCGUUCACGUCGCAGCCCCCGUCAGAUUCUGGUGAAUCUGCGCUUUUCGCUGUAUAUCUC: the self-cleavage amounted to 0.2. The figure for UAACAGGGGGCCACAGCAGAAGCGUUCACGUCGCAGCCCCCGUCAGAUUCUGGUGAAUCUGCGGACUCUGCUGUAUAUCUC is 0.3. On to UAACAGGGGGCCACAGCAGAAGCGUUCACGUCGCAGCCCCCGUCAGAUUCUGGUGAGUCUGCGAAUUCUGCUGUAUAUCCC, for which the self-cleavage worked out at 0.81.

On to UAACAGGGGGCCACAGCAGAAGCGUUCACGUCGCAGCCCCCGUCAGAUUCUGGUGAAUCUGCGAAUUAUGCAGUAUAUCUC, for which the self-cleavage amounted to 0.35. As for UAACAGGGGGCCACAGCAGAAGCGUUCACGUCGCAGCCCCCUUCAGAUCCUGGUGAAUCUGCGAAUUCUGCUGUAUAUCUC, the self-cleavage was found to be 0.18. As for UAACAGGGGGCCACAGCAGAAGCGUUCACGUCGCAGCCCCCGUCAGAUUCUGGUGAAUAUGCGAAUUCUGCAGUAUAUCUC, the figure is 0.32.

Regarding UAACAGGGGGCCACAGCAGAAGCGUUCACGUCGCAGCCCCCGUCAGAUUAUGGUGAAUCUGCGAACUCUGCUGUAUACCUC, the self-cleavage worked out at 0.15. The figure for UAACAGGGGGCCACAGCAGAAGCGUUCACGUCGCAGCCCCCGUCAGAUUCUGGUGAAUCUGCGAAUUAUGCUGUAAAUCUC is 0.55.

As to UAACAGGGGGCCACAGCAGAAGCGUUCACGUCGCAGCCCCCCUCGGAUUCUGGUGAAUCUGCGAAUUCUGCCGUAUAUCCC, the self-cleavage was 0.34.
